Data reported in PubChem BioAssay AID1963576 (National Center for Advancing Translational Sciences (NCATS), 2024).
Hit rate of the full screen: of about 46,000 compounds, about 60 (0.1%) were called active. Roughly 3% stayed inconclusive and do not appear here. Calls follow the shape of the dose curve; as a rule, active = well fitted inhibition curve with a large enough effect; inconclusive = small, poorly fitted or top-dose-only effect; inactive = no such curve, though single readings can be large or run the other way. The list shows a part of the results.

Assay: Primary qHTS assay for Inhibitors of ovarian cancer metastasis using an organotypic tumor microenvironment (TME) model. Also: nearly all actives have a fitted effect of over 65% in size.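 As to activity change, negative = inhibition: plate controls were DMSO wells for no effect and tomatine positive control wells for full effect.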
Details: SKOV3ip1-GFP adhesion/invasion on 3D omental model, fluorescence; series mostly up to 45.8 µM; activity change, negative = inhibition: at the top concentration
Procedure, shortened: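 Adhesion/invasion was scored as fixed GFP-labeled SKOV3ip1 cell counts (488/509 nm), normalized to DMSO and tomatine controls. Cancer cells in serum-free medium, with four compound doses (0.36-46 umol/L), sat 2 hr at RT then 16 hr at 37 C on a 48 hr fibroblast/mesothelial/ECM culture.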

Activity change, negative = inhibition, inactive:
COc1ccc(C2C(=O)N(C3CCCCCC3)CC(=O)N2Cc2ccccc2)cc1 (configuration not stated) -14.3%, COC(=O)c1c(-c2cccs2)csc1NC(=O)COc1ccccc1 -4.83%, NC(=O)Cn1c(=O)n(CCCCCC(=O)NCc2ccccc2Cl)c(=O)c2sccc21 -8.83%, CCCn1c2ccccc2c2cnn(CC(=O)NC(C)CC)c(=O)c21 (configuration not stated) 7.46%, COc1ccc(OC(=O)CSc2nnc(-c3ccc(F)cc3)o2)cc1 8.43%, CCCCOC(=O)/C(C#N)=C/c1ccc(-c2ccc(Br)cc2)o1 -12.1%, Cc1ccc(N2C(=O)CSC23C(=O)N(CC(=O)Nc2ccc(C)cc2C)c2ccccc23)cc1 (configuration not stated) -4.3%, CCc1cccc(C)c1NC(=O)c1nc2ccccc2nc1N1CCCCC1 -5.41%, Cc1ccc(NC(=O)CCCN2C(=O)COc3ccc(C)cc32)c(C)c1 1.32%, Cc1ccc([N+](=O)[O-])c(Oc2ncnc3c2oc2ccccc23)c1 -14.3%, Cc1ccc(C)c(N2CCN(S(=O)(=O)c3ccc4c(c3)CCCN4C(=O)C3CCC3)CC2)c1 0.555%, Cc1ccc(CNC(=O)CN2C(=O)CSc3ccc(S(=O)(=O)N4CCCC4)cc32)cc1 2.74%, COc1cccc(-c2nc3c(c(SCc4ccccc4Cl)n2)Cc2c(CO)cnc(C)c2O3)c1 -8.7%, CN(C)c1ccc(CNC(=O)CN2C(=O)CCn3nc(-c4cn(C)c5ccccc45)cc32)cc1 2.3%, Cc1cc2oc(C(=O)Nc3sc4c(c3C(=O)NCc3ccccc3)CCCC4)cc(=O)c2cc1C -0.872%, COc1ccc(CNS(=O)(=O)c2ccc(F)c(C(=O)Nc3c(C)cc(C)cc3C)c2)cc1 -8.28%, CCCN(CCC)C(=O)c1cn(CC)c2ccc(S(=O)(=O)N3CCCCC3)cc2c1=O -7.55%, CCC(CC)C(=O)NCc1nc2cccnc2n1Cc1ccc(F)cc1 -20.8%, O=C(NCCCO)C(=O)Nc1c2c(nn1-c1ccccc1)CSC2 -5.9%, COc1ccc(-c2noc(CN(C(=O)Cc3ccc(C)cc3)C(C)C)n2)cc1 -19.7%, COCCCNC(=O)c1sc2nc(C)c(C(=O)Nc3ccc(C)cc3C)c(-c3ccc(Br)cc3)c2c1N 21.4%, CCC(C)NC(=O)CSc1nnc(-c2ccc(C)cc2)c(-c2ccc(C)cc2)n1 (configuration not stated) 2.07%

outcome, inactive:
COCCNC(=O)Cn1cc2c(n1)-c1c(oc(C(=O)N3CCCC3)c1C)CC2, CCC(=O)N1CCN(c2nc3c(C)cccc3s2)CC1, COc1ccc2nc3sc(C(=O)N4CCN(c5ccc(F)cc5)CC4)cc3cc2c1, CCc1ccc(C(=O)CSc2nc(-c3ccccc3)nc3c2CCCC3)cc1, CCOC(=O)c1cc(-c2ccc(OC)cc2)n(CCC(=O)Nc2cccc(C(C)=O)c2)c1C
